Measured values from PubChem BioAssay AID686978 (National Center for Advancing Translational Sciences (NCATS), 2013).
Screen size: about 420,000 compounds; about 64,000 (15%) were called active. Inconclusive results, whose numbers are uncertain, are shown with a selection of clear calls. Calls come from the whole dose curve; as a rule, active = well fitted inhibition curve with a large enough effect; inconclusive = small, poorly fitted or top-dose-only effect; inactive = flat fitted curve, though single readings scatter. Potencies of inconclusive entries are left out as doubtful fits. A structure can be active in one record and inactive in another.

Assay: qHTS for Inhibitors of human tyrosyl-DNA phosphodiesterase 1 (TDP1): qHTS in cells in absence of CPT; note: nearly all actives have a fitted effect of over 55% in size
Conditions: DT40 Tdp1-/- hTDP1 cells, no CPT, ATP luminescence, 48 h; activity change, negative = growth inhibition: at 46.2 µM (top of the series)
Outline: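 Stably hTDP1-transfected Tdp1-null chicken DT40 cells were treated with library compounds minus camptothecin and grown for at least 48 hr at 37 °C, after which cellular ATP was quantified by luminescence.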
% is set by controls: 0 for no effect and ±100 for the full control effect; potency is the fitted concentration of half-maximal effect; tags give direction and shape of the fitted curve.

SMILES | Potency | activity change, negative = growth inhibition
O=C(COc1coc(CN2CCN(c3ccc(F)cc3)CC2)cc1=O)NC1CCCC1 | inconclusive [inhibitor, partial curve] | –
Clc1ccc2c(c1)NC(c1ccncc1)=NC(c1cccs1)=N2 | inconclusive [inhibitor, partial curve] | –
CCN(CC)S(=O)(=O)c1cccc(C(=O)Nc2ccc(C#N)cc2)c1 | active: 8.2 µM | –
Cc1nc(NS(=O)(=O)c2ccccc2)sc1C(C)(C)C | inconclusive [inhibitor, partial curve, poor fit] | –
COC(=O)c1c(SC)nc2ccccc2c1OCc1ccc(Cl)cc1 | inconclusive [inhibitor, single point] | –
Cc1cc(C(=O)N2CCOCC2)n(-c2ccccc2)n1 | – | inactive: -5.09%
Cc1ccc2nc(Cl)c3nnnn3c2c1 | active: 2.59 µM | –
Cn1c(SCC(=O)N2CCN(C(=O)c3ccco3)CC2)nnc1-c1ccc(NS(C)(=O)=O)cc1 | – | inactive: -2.17%
Cc1ccc2nc(SCC(=O)c3c(N)n(C4CC4)c(=O)[nH]c3=O)[nH]c2c1 | inconclusive [inhibitor, partial curve, poor fit] | –
FC(F)(F)c1ccccc1CN1CCCC(N2CCN(c3ccccc3)CC2)C1 (stereo not given) | inconclusive [inhibitor, single point] | –
COc1ccccc1OCC(O)Cn1c(=N)n(CCN2CCCCC2)c2ccccc21 (stereo not given) | active: 16.4 µM | –
Cc1c(C(=O)N2C[C@@H](C)O[C@@H](C)C2)oc2c(F)cccc12 | inconclusive [inhibitor, single point] | –
O=c1[nH]c(SCc2cccc(F)c2)nc2c1CCCC2 | inconclusive [inhibitor, single point] | –
COc1ccc(/C=N/Nc2ncc(C(F)(F)F)cc2Cl)cc1OC | inconclusive [inhibitor, single point] | –
CCOC(=O)N1CCC(NC(=O)CS(=O)Cc2nc(-c3ccc(Cl)cc3)oc2C)CC1 (stereo not given) | active: 14.6 µM | –
Cc1ccc(CN2CCOc3ccc(CN4CCC(Oc5cccnc5)CC4)cc3C2)o1 | inconclusive [inhibitor, single point] | –
O=C(NC1CCC(=O)N(CCOc2ccccc2)CC1)OCc1ccccc1 (stereo not given) | active: 11.2 µM | –
Cc1cc(=O)oc(C)c1C(=O)N1CCN(C(c2ccccc2)c2ccccc2)CC1 | active: 29.1 µM | –
COC(=O)Nc1ccc(SCC(=O)c2ccccc2)cc1 | – | inactive: -21.7%
CCN1CCN(C(=O)c2cnn(-c3cccc(Cl)c3)c2C2CCN(C(=O)OC(C)(C)C)CC2)CC1 | inconclusive [inhibitor, single point] | –
O=C(COCc1cc(-c2ccc3c(c2)OCO3)on1)N1CCN(c2cccc(Cl)c2)CC1 | inconclusive [inhibitor, single point] | –
C=CCNC(=S)Nc1ccc2nc(C)c(C)nc2c1 | active: 18.4 µM | –
Cc1ccc(N(C)C(=O)N2CCN(S(=O)(=O)c3ccc(C)cc3)CC2)cc1 | inconclusive [inhibitor, single point] | –
Clc1ccc2ccc3cccnc3c2n1 | inconclusive [inhibitor, single point] | –

SMILES | Potency | activity change, negative = growth inhibition
COc1ccccc1C(CNc1nc(C(F)(F)F)nc2ccccc12)N(C)C (stereo not given) | active: 20.6 µM | –
Cc1ccsc1C(=CCCN1CCC[C@@H](C(=O)O)C1)c1sccc1C | inconclusive [inhibitor, single point] | –
O=C(COC(=O)c1ccccc1)Nc1cc(Cl)ccc1Oc1ccccc1 | inconclusive [inhibitor, single point] | –
NC(=O)c1nsc(C(=O)N(CC(=O)NC2CCCCC2)c2ccc(Cl)cc2)c1N | inconclusive [inhibitor, single point] | –
CCC(c1nnnn1-c1ccc2c(c1)OCCO2)N1CCN(c2ccc(OC)cc2)CC1 (stereo not given) | inconclusive [inhibitor, single point] | –
COc1ccccc1N(Cc1ccccc1)S(=O)(=O)c1cccc(C(=O)NC2CC(C)(C)NC(C)(C)C2)c1 | active: 18.4 µM | –
CCCCSc1nnc(CSc2ncccn2)n1C | – | inactive: 3.08%
Cc1ccc(Cl)cc1NC(C#N)c1ccccc1 (stereo not given) | inconclusive [inhibitor, single point] | –
NNC(=O)c1ccc(Cn2cc(Br)c(N)n2)cc1 | – | inactive: -1.41%
COc1ccc(-n2ncc3c2CC(C)(C)CC3NC(=O)CSc2ccccn2)cc1 (stereo not given) | inconclusive [inhibitor, single point] | –
CCOc1ccc(N2C(=O)c3n[nH]c(-c4cccs4)c3C2c2cccc(F)c2)cc1 (stereo not given) | inconclusive [inhibitor, single point] | –
Cc1ccc(CC2(C)C(=O)Nc3ccc(OC(F)(F)F)cc32)cc1 (stereo not given) | inconclusive [inhibitor, single point] | –
CCOC(=O)CSc1nc(N)nc(C)c1Cl | inconclusive [inhibitor, single point] | –
Cc1cc(C)c(S(=O)(=O)c2ccccc2C)c(Oc2ccccc2)n1 | inconclusive [inhibitor, single point] | –
O=C(CSc1nnc(NC(=O)C2CC2)s1)NCc1ccc(F)cc1 | – | inactive: -16.9%
CCOC(=O)N1CCN(c2nc(C)c3c(n2)CC(C)CC3=O)CC1 (stereo not given) | – | inactive: -10.8%
O=c1[nH]ncc(NCc2ccc(Cl)cc2)c1Cl | inconclusive [inhibitor, partial curve, poor fit] | –
CC(C)c1ccc(NC(=O)C(c2ccccc2)N(C)C(=O)CCc2c[nH]c3ccccc23)cc1 (stereo not given) | inconclusive [inhibitor, single point] | –
CCN(C(=O)CSc1nnnn1-c1ccccc1)c1c(N)n(Cc2ccccc2)c(=O)[nH]c1=O | – | inactive: -21.3%
Cc1[nH]c2ccccc2c1C(=O)CN1C(=O)C(=O)N(CCC2=CCCCC2)C1=O | – | inactive: 3.39%
COc1ccc(Cc2c(C(C)(C)C)nc3cc(C)c(Br)c(C)n23)c(C)c1 | inconclusive [inhibitor, partial curve, poor fit] | –
Cc1ccc(Cn2c(C)c3cnn(CC(=O)NCc4ccccn4)c(=O)c3c2C)cc1 | inconclusive [inhibitor, single point] | –
COc1cccc(NC(=O)n2nc(N)cc2-c2ccc(Cl)cc2)c1 | inconclusive [inhibitor, single point] | –
CCCCNC(=O)C1(NC(=O)Nc2ccc(C)cc2)CCCCC1 | inconclusive [inhibitor, single point] | –

SMILES | Potency | activity change, negative = growth inhibition
COC(=O)c1ccccc1N=Nc1c(N)[nH][nH]c1=O | inconclusive [inhibitor, full curve, poor fit] | –
C[C@@H](C[C@@H](O)[C@H](O)C(C)(C)O)[C@@H]1CC[C@]2(C)C3=CC[C@H]4C(C)(C)C(=O)CC[C@]4(C)[C@H]3CC[C@@]12C | active: 6.51 µM | –
CN(C)c1ccc(-c2nc(-c3ccco3)no2)cc1[N+](=O)[O-] | inconclusive [inhibitor, partial curve] | –
CCOC(=O)[C@]12CCC=C1N(Cc1cccc3ccccc13)C(=O)[C@H](CC(=O)NCc1ccccc1)C2 | inconclusive [inhibitor, single point] | –
Cc1cc(C)c(C(N)=O)c(Nc2ccc(F)cc2)n1 | – | inactive: -21.9%
Brc1ccccc1/C=N/Nc1ccc2ccccc2n1 | active: 16.4 µM | –
Cc1cc(NC(=O)c2ccccc2)ncc1NC(=O)c1ccco1 | inconclusive [inhibitor, partial curve] | –
Cc1ccc(S(=O)(=O)n2cnc(C)c2)cc1 | – | inactive: -6.76%
OC1CCC2Cc3ccccc3N=C12 (stereo not given) | – | inactive: -23.9%
COc1ccc(S(=O)(=O)N2CCN(CC(=O)Nc3cc(C(F)(F)F)ccc3Cl)CC2)cc1 | active: 10.3 µM | –
CCCOC(=O)c1c(-c2ccc(OC)cc2)oc2ccc(-c3ccc(OC)nc3)cc12 | inconclusive [inhibitor, partial curve, poor fit] | –
Cn1cc(CCC(=O)NC2CC2)c2ccccc21 | – | inactive: -0.36%
CCc1ccc(NC(=O)c2ccc(F)c(S(=O)(=O)NCc3ccc(Cl)c(Cl)c3)c2)cc1 | inconclusive [inhibitor, single point] | –
CCOc1ncnc2c1[nH]c1ccccc12 | inconclusive [inhibitor, single point] | –
O=C(C[n+]1ccncc1)c1ccc2c(c1)CCCC2 | inconclusive [inhibitor, single point] | –
Cc1ccc(/C(=N/Nc2ncnc3ccccc23)C(=O)O)cc1 | inconclusive [inhibitor, single point] | –
COc1ccccc1N1CCN(S(=O)(=O)c2c(C(=O)N3CCOCC3)c(C)n(C)c2C)CC1 | inconclusive [inhibitor, single point] | –
CC(C)Cc1ccc(-c2cc3nc(NCC4CC4)ccn3n2)cc1 | inconclusive [inhibitor, single point] | –
CCN(CC)S(=O)(=O)c1ccc2c(c1)N(CC(=O)N1CCN(c3cccc(OC)c3)CC1)C(=O)CO2 | inconclusive [inhibitor, single point] | –
Cc1c(Nc2nc3ccccc3n3c(C)nnc23)cccc1C(=O)O | – | inactive: -6.96%
Cc1ccc(Cl)cc1-n1ncc2c(NCCCc3ccccc3)ncnc21 | inconclusive [inhibitor, single point] | –
CCOc1ccc2nc(NC(=S)NCc3ccccc3)sc2c1 | inconclusive [inhibitor, single point] | –
